According to PubChem BioAssay AID1461 (National Center for Advancing Translational Sciences (NCATS), 2008):
The whole screen tested about 220,000 compounds, of which about 2,300 (1%) were called active. The shares of active, inactive and inconclusive entries below differ from those in the screen. The call rests on the fitted dose curve; in most records, active means well fitted inhibition curve with a large enough effect; inconclusive means small, poorly fitted or top-dose-only effect, or effect the other way; inactive means no such curve, though single readings can be large or run the other way. No potency is given beside an inconclusive call; the fits are too rough.

Biological target: Neuropeptide S receptor (Homo sapiens) (UniProt Q6W5P4)
Sequence of UniProt Q6W5P4 (Q6W5P4 whole entry, looked up): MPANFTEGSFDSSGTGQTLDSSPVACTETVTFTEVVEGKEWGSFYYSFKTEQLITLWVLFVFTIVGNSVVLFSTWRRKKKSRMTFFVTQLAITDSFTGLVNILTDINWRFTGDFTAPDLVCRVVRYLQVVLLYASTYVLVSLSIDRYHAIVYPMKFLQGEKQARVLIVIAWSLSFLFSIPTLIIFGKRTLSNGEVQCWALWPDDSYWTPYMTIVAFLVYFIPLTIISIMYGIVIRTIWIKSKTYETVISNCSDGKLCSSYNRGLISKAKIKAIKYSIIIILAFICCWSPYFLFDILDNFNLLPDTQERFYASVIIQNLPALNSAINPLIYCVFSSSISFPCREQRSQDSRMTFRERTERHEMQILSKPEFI
Assay: qHTS Assay for Antagonists of the Neuropeptide S Receptor: cAMP Signal Transduction; further: nearly all actives have a fitted effect of over 50% in size
Details: CHO-NPSR cells, cAMP TR-FRET, antagonist mode; activity change, negative = inhibition: at 38.3 µM (top of the series) unless noted
On the % scale 0 is the no-effect control and ±100 the full control effect; potency means the concentration at half of the fitted maximal effect; tags describe the fitted curve by direction and shape.

Structure (SMILES) | activity change, negative = inhibition | Potency
O=C(CC(=O)NC1CCCCC1)N/N=C/c1ccccc1Cl | inactive: 16.5% | 
COCCn1c(SCC(=O)Nc2cccc(C(=O)OC)c2)nc2ccccc2c1=O |  | inconclusive [inhibitor, partial curve, poor fit]
CCn1c(C)nc2cc(C(=O)N/N=C(\C)c3ccccc3O)ccc21 | inactive: 6.38% | 
N=C1C(c2nc3ccccc3s2)=C(O)CN1NC(=O)c1ccc([N+](=O)[O-])cc1 |  | inconclusive [inhibitor, single point]
O=c1cnn(-c2ccc(Cl)cc2Cl)c(-c2ccccc2)c1 |  | inconclusive [inhibitor, partial curve, poor fit]
Cc1nn(-c2ccccc2)c(C)c1/C=N/n1cnnc1 | inactive: 13.6% | 
Cc1cc2cc(CNC(=O)c3ccc(S(=O)(=O)N4CCCC4)cc3)ccc2n1C | inactive: 9.13% [at 46.1 µM] | 
COC(=O)c1ccccc1NS(=O)(=O)c1ccc(O)c(C(=O)O)c1 | inactive: -8.03% [at 46.1 µM] | 
Cc1oc(-c2cccc(Cl)c2)nc1CN1CCCC(C(=O)NC(C)c2ccc3c(c2)OCCO3)C1 (centres undefined) |  | inconclusive [inhibitor, full curve, poor fit]
COc1ccccc1CNC(=O)C1CC(=O)N(c2ccc(C)c(C)c2)C1 (centres undefined) | inactive: -8.63% [at 46.1 µM] | 
CCc1nnc(NC(=O)CSc2nc(-c3ccccc3)cc(-c3ccc(F)cc3)c2C#N)s1 |  | active: 10 µM
Cc1cccc(NC(=O)CSc2nc(C)c(CC(=O)c3ccc(Br)cc3)c(C)c2C#N)c1C |  | active: 6.31 µM
CC(c1ccco1)N(C(=O)C12CC3CC(CC(C3)C1)C2)c1ccccn1 (centres undefined) |  | inconclusive [inhibitor, partial curve]
CCOC(=O)c1c(CSC(=N)N)n(-c2ccc(Br)cc2)c2cc(Br)c(OC(C)=O)cc12 |  | active: 10 µM
COc1ccc2c(C)cc(SCC(=O)Nc3ncc(Cl)cc3Cl)nc2c1 |  | inconclusive [inhibitor, single point]
COc1ccc2[nH]c(=O)c(CN(Cc3cccs3)C(=S)Nc3cccc(C)c3)cc2c1 |  | inconclusive [inhibitor, partial curve, poor fit]
O=C(CCn1cccc(C(F)(F)F)c1=O)Nc1cccc(C(F)(F)F)c1 | inactive: 7.8% | 
CN(C)CCCNc1c2c(c(C#N)c3nc4ccccc4n13)CCC2 |  | inconclusive [inhibitor, single point]
CSc1cc(-c2ccc(Cl)cc2)[nH]c(=O)c1C#N |  | inconclusive [inhibitor, single point]
Cc1scc(C(=O)N/N=C/c2ccc(Cl)s2)c1C | inactive: -24.9% | 
N#C/C(=N/Nc1ccc(OC(F)(F)F)cc1)C(N)=S |  | inconclusive [activator, single point]
O=C(COc1ccccc1)N1CCN(c2ncccn2)CC1 | inactive: 2.87% | 

Structure (SMILES) | activity change, negative = inhibition | Potency
COc1ccc2c(c1)[nH]c(=O)c1sc3ccccc3c12 |  | inconclusive [inhibitor, single point]
Oc1[nH]c2ccccc2c1N=NC(=S)N1CCOCC1 |  | inconclusive [activator, single point]
CC(C)OP(=O)(c1ccc(N(C)C)cc1)C(Nc1ccccc1)c1ccccc1 (centres undefined) |  | inconclusive [activator, partial curve]
CCN(CC)C(=O)N1CCC(NC(=O)c2ccccc2)CC1 |  | inconclusive [inhibitor, single point]
O=CN1CCN(C(=S)Nc2ccc(OC(F)F)cc2)CC1 |  | inconclusive [activator, single point]
O=c1[nH]c2cc3c(cc2cc1CN(Cc1nnnn1C1CCCC1)C1CCCC1)OCCO3 |  | inconclusive [inhibitor, partial curve]
C[n+]1c2n(c3ccccc31)N=C(c1cc(C(C)(C)C)c(O)c(C(C)(C)C)c1)CS2 |  | inconclusive [inhibitor, single point]
CN(C(=O)CSc1nc2ccccc2n1CCc1ccccc1)C1CCS(=O)(=O)C1 (centres undefined) | inactive: -7.75% [at 46.1 µM] | 
Cc1ccc(C(OCC(O)CNC(C)c2ccccc2)c2ccccc2)cc1 (centres undefined) |  | inconclusive [inhibitor, single point]
CCCC(=O)Nc1nc(C)c(-c2csc(Nc3ccccc3OC)n2)s1 | inactive: -8.98% [at 46.1 µM] | 
CC(=O)n1nc(-c2ccc(Cl)cc2)nc1NCc1ccco1 |  | inconclusive [inhibitor, single point]
O=[N+]([O-])c1cccnc1N1CCC(c2cc(-c3ccc(Cl)cc3)n[nH]2)CC1 |  | inconclusive [inhibitor, single point]
COc1ccc2[nH]c(C(=O)Nc3ccc(F)cc3Br)cc2c1 |  | inconclusive [activator, partial curve]
COc1ccc2[nH]c3c(C)c4ccncc4c(C)c3c2c1 |  | inconclusive [activator, single point]
CCOC(=O)c1sc(=NC(=O)c2cccc(C)c2)n(C)c1C |  | inconclusive [inhibitor, single point]
CC(C)(C)n1nnnc1C(c1ccccn1)N1CCN(C(c2ccccc2)c2ccccc2)CC1 (centres undefined) |  | inconclusive [activator, single point]
Cc1nc(-c2ccccc2)nc2[nH]c(-c3ccccc3)cc(=O)c12 |  | inconclusive [activator, single point]
CCO[C@H]1OC(C(=O)O)=C[C@@H](c2csc3ccccc23)[C@@H]1CCCO |  | inconclusive [activator, single point]
CC(C)CN(C(=O)CSc1nnnn1-c1ccccc1)c1c(N)n(CC(C)C)c(=O)[nH]c1=O | inactive: -3.42% | 
O=C(NC1CC2CCC(C1)N2Cc1nnnn1Cc1ccco1)NC12CC3CC(CC(C3)C1)C2 (centres undefined) |  | inconclusive [inhibitor, single point]
Cc1nnc(NC(=O)CSc2nnc(Cc3cccn3C)n2C)s1 | inactive: -27.2% [at 46.1 µM] | 
Cc1coc(C)c1C(=O)CC1(O)C(=O)N(Cc2ccccc2)c2ccccc21 (centres undefined) |  | inconclusive [inhibitor, partial curve, poor fit]
